From PMC4336329 (PLoS ONE, 2015) come the findings set out here.

In all, about 310,000 compounds went through this assay and about 14,000 (4.5%) showed an effect of 50% or more. Effects have a minus sign here. Some of the results follow.
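Also: peak tail current of the secondary pulse compared with the same well before compound.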

human ether-à-go-go-related gene (hERG) potassium channel, sequence (Q12809 whole entry, looked up): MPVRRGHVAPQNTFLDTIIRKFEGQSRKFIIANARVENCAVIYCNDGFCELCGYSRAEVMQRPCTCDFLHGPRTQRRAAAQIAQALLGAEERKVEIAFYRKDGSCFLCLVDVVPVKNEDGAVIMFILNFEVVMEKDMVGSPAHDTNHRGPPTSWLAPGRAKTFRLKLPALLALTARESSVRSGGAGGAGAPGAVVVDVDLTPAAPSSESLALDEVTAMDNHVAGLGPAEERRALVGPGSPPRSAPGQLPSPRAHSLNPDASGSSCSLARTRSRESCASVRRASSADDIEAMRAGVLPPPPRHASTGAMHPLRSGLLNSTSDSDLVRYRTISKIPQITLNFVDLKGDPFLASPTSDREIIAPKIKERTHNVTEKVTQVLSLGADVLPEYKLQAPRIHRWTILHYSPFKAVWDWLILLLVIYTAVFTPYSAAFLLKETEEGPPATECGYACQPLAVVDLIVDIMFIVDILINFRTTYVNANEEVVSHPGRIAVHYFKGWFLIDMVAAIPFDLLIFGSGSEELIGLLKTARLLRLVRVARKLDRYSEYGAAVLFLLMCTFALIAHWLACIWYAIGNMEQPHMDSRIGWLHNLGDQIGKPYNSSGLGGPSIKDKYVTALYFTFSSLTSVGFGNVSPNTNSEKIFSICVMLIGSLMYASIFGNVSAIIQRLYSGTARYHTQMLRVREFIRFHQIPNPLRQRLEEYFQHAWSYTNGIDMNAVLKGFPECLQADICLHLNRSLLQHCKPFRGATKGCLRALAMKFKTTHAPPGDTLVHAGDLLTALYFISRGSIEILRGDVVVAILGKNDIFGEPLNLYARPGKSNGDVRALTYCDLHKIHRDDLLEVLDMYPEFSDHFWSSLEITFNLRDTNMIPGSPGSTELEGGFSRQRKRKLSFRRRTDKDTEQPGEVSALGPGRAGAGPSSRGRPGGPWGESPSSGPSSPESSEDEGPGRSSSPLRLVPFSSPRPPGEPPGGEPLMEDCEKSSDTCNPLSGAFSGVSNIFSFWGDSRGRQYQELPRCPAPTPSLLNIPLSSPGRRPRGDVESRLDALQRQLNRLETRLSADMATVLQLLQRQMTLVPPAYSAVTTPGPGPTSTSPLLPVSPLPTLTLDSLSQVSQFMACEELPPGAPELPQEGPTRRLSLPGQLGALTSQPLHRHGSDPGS

This assay addresses human ether-à-go-go-related gene (hERG) potassium channel (human, UniProt Q12809). The assay is described as follows: primary screen, population patch clamp on CHO cells stably expressing hERG.
As for `CCC1SC2=NC(C)=C(C(=O)OCCOC)C(/C=C/c3ccccc3OC)N2C1=O` (stereo not shown), the “hERG current change (%, negative = inhibition) at 10uM” value was -0.0141%. To `COCCCn1c(=N)c(C(=O)NCC2CCCO2)cc2c(=O)n3cccc(C)c3nc21` (stereo not shown) belongs -73.1%; to `Cc1cc(C)nc(SCC(=O)Nc2ncc3c(n2)CC(C)(C)CC3=O)n1`, -13.1%.

On to `C=CCNc1oc(COc2ccc(C)cc2)nc1C#N`, for which the “hERG current change (%, negative = inhibition) at 10uM” value was -17%. As to `CCc1cc(C(=O)N2CCN(C(=O)c3ccco3)CC2)sc1C`, the “hERG current change (%, negative = inhibition) at 10uM” value is reported as 10.6%. To `C1CC2CN(c3nc4nonc4nc3N3CCSCC3)CCN2C1` (stereo not shown) belongs 2.38%.

`O=[N+]([O-])c1ccc(S(=O)(=O)NCC(c2cccnc2)N2CCc3ccccc32)cc1` (stereo not shown): the “hERG current change (%, negative = inhibition) at 10uM” value was -31.5%. To `O=C(O)c1ccc(Cl)c(S(=O)(=O)Nc2ccc3cn[nH]c3c2)c1` belongs -6.08%; to `CCOC(=O)C1=C(CC)Nc2ccccc2N=C1N`, 12.9%. To `C=CCn1c(SCc2nc3ccccc3[nH]2)nnc1-c1ccc(OC)cc1` belongs -7.51%; to `C=CCNC(=O)c1ccc(-c2nc(-c3ccc(Cl)cc3Cl)cs2)cc1`, -0.511%; to `CC(C)CCn1c(=O)c2sccc2n2c(CCCC(=O)N3CCC(N4CCCCC4)CC3)nnc12`, -4.07%. `Cc1ccc(N2CC(C(=O)N3CCC(C(=O)Nc4nncs4)CC3)CC2=O)cc1` (stereo not shown): the “hERG current change (%, negative = inhibition) at 10uM” value is 14%. To `C/C(=N\NC(=O)c1ccc(CN(C)S(=O)(=O)c2ccc(C)cc2)cc1)c1ccc(OC(F)F)cc1` belongs -26.2%. To `Cc1cc(NC(=O)CSc2ncnc3sc(C)c(C)c23)no1` belongs 7.01%; to `O=C(Oc1ccccc1N1CCOCC1)c1sccc1Br`, 5.53%; to `COc1ccc(NS(=O)(=O)c2cc(C(=O)N3CCN(C/C=C/c4ccccc4)CC3)ccc2C)cc1`, -44.9%. To `O=C(O)c1cccc(NC(=O)c2cn(-c3ccccc3)nc2-c2cccc(Br)c2)c1` belongs 19.6%; to `CCN(CC(=O)N1CCN(Cc2ccccc2)CC1)S(=O)(=O)c1ccc(C)cc1`, -17.3%; to `COc1cc(C(=O)NCC(c2ccccc2)N(C)C)ccc1OCc1c(C)noc1C` (stereo not shown), -10.4%. Turning to `O=C(CCn1c(=O)oc2ccccc21)N1CCc2ccccc21`, the “hERG current change (%, negative = inhibition) at 10uM” value came out at 15.6%.

As to `Cc1nnsc1C(=O)NC(=O)Nc1ccc(F)c(Cl)c1`, the “hERG current change (%, negative = inhibition) at 10uM” value amounted to 11.2%. To `O=C(OCc1nc2ccsc2c(=O)[nH]1)c1ccc(Cl)s1` belongs -5.59%; to `CCc1cc(=O)oc2c(CNC(Cc3ccccc3)C(=O)O)c(O)ccc12` (stereo not shown), 9.3%. To `O=C(CN1CCN(c2ccccc2)CC1)Nc1c(C(=O)C2CC2)oc2ccccc12` belongs 4.49%; to `CCc1cccc(C)c1NC(=O)COC(=O)c1c2c(nc3ccccc13)/C(=C\c1cccs1)CCC2`, 10.4%; to `Cc1ccc(C(O)CN2C3=NCCN3c3ccccc32)cc1.Cl` (stereo not shown), -61.1%. To `COc1ccc(C(=O)C2CCCN(Cc3cccn3-c3ccccn3)C2)c(C)c1` (stereo not shown) belongs -78.9%; to `CN1/C(=C\C=O)C(C)(C)c2ccccc21`, 12.9%. Regarding `CC(c1ccco1)N(C(=O)CSc1ccc(Br)cc1)c1ccccn1` (stereo not shown), the “hERG current change (%, negative = inhibition) at 10uM” value is -22.2%.

For the compound `CN(C)CC(C)(C)CNS(=O)(=O)c1ccc(OC(F)(F)F)cc1.Cl`, the “hERG current change (%, negative = inhibition) at 10uM” value was 3.54%. To `Cc1ccc2nc(-c3cccc(-c4cccc(Cl)c4)c3)c(NCc3ccccc3)n2c1.O=C(O)C(F)(F)F` belongs 16.3%; to `CCn1c(=O)c2cc(C(=O)Nc3cccc(C(C)=O)c3)sc2c2ccccc21`, -3.05%; to `O=C(CSc1nc2[nH]ncc2c(=O)[nH]1)Nc1ccc(F)cc1`, 13.6%. To `CCOC(=O)CNS(=O)(=O)c1c(C)noc1C` belongs 1.95%; to `Cc1ccc(NC(=S)NC2CCCCC2)cc1S(=O)(=O)N(C)C`, -36.8%; to `CCOc1ccccc1N(C)C(=O)c1nn(-c2ccc(OC)cc2OC)c(=O)c2ccccc12`, -25.6%. To `CCCCN(C(=O)CSc1cc(C)c2ccc(OC)cc2n1)c1c(N)n(Cc2ccccc2)c(=O)[nH]c1=O` belongs -11.1%; to `O=C(COC(=O)c1ccco1)NCC1CCCO1` (stereo not shown), -16.4%. With `C/C(=N\NC(=O)Cc1ccccc1)c1ccc(Br)s1`, the “hERG current change (%, negative = inhibition) at 10uM” value came out at 20.3%. To `CN(C)CCN(Cc1ccccc1)C(=O)[C@H](Cc1ccccc1)N1C(=O)c2ccccc2C1=O` belongs -30.1%; to `O=S(=O)(Nc1ccc(-c2ccc3nncn3n2)cc1)c1ccccc1F`, 7.03%; to `N#CC1(NC(=O)COC(=O)C23CC4CC(CC(O)(C4)C2)C3)CCCCC1`, 4.38%. As to `CC(=O)N1CC(=O)N(CC(=O)Nc2ccc(Br)cc2)C1=S`, the “hERG current change (%, negative = inhibition) at 10uM” value is reported as 12.3%. `CNC(=S)Nc1cccc(C(=O)O)c1`: the “hERG current change (%, negative = inhibition) at 10uM” value is reported as 38.1%. For `CCN(CC)S(=O)(=O)c1ccc(NC(=O)C2COc3ccccc3O2)cc1` (stereo not shown), the “hERG current change (%, negative = inhibition) at 10uM” value stood at 1.61%. To `Brc1ccccc1OCCN1CCCC1` belongs -1.74%. For the compound `Cc1cccc2c1-c1sc(C(=O)Nc3nccs3)cc1CO2`, the “hERG current change (%, negative = inhibition) at 10uM” value is reported as -2.96%. To `Cc1cc(C)nc(SCCC(=O)Nc2ccccc2C)n1` belongs 21.8%; to `Oc1ccc(-n2cccc2/C=N/n2cnnc2)cc1`, 13.8%.

For `Cc1ccc(S(=O)(=O)N(C)c2ccc(OCC(=O)Nc3nc(-c4ccccc4)cs3)cc2)cc1`, the “hERG current change (%, negative = inhibition) at 10uM” value stood at 14.3%.

For `CS(=O)(=O)c1ccc(Cl)c(NC(=O)CSc2nnc(-c3cccs3)n2N)c1`, the “hERG current change (%, negative = inhibition) at 10uM” value was found to be 11.4%. As to `COc1cc(C(=O)NC2CC(C)(C)Cc3c2cnn3-c2ccccc2)cc(OC)c1OC` (stereo not shown), the “hERG current change (%, negative = inhibition) at 10uM” value was 8.92%.

Consider `Cc1cc(NC(=O)CSc2nc3cc(Cl)ccc3c(=O)n2Cc2ccco2)no1`, for which the “hERG current change (%, negative = inhibition) at 10uM” value is 29.8%. To `CCc1ccccc1Nc1nc2ccccc2n1C` belongs -18.1%.
